The campaign covered roughly 150,000 compounds. About 540 (0.36%) showed an effect of 50% or more. The list shows a part of the results.
The molecules below were run on Plasmodium falciparum (assay: Primary screen in NF54 nanoGlo assay, in single point, at 2uM, 72h; a lower Z score goes with more inhibition). Conditions: timepoint 72 hour.
Format: functional, Erythrocyte
For `Cc1ncsc1CN(C)Cc1ncc(-c2cccs2)o1`, the “% Inhibition” value was -1% and the Z score was 0.17. For `CC1CN(Cc2nc(-c3cccnc3)no2)CC(C)O1` (configuration not stated), the “% Inhibition” value was -7% and the Z score was 1.25. For `OCC1OC(n2nnc3ccccc32)C(O)C(O)C1O` (configuration not stated), the “% Inhibition” value was -7% and the Z score was 1.28. With `CNS(=O)(=O)CC1CCCN(C(=O)NC(C)Cc2ccc(F)cc2C)C1` (configuration not stated) the “% Inhibition” value was 3% and the Z score was -0.34. For `Cc1nn[nH]c1NC(=O)CC1CC2CCC1C2` (configuration not stated), the “% Inhibition” value was -12% and the Z score was 1.17. For `Cc1n[nH]c(CN(C2CC2)C2COC2)n1`, the “% Inhibition” value was -6% and the Z score was 0.69. `CN(C)c1cccc(C(=O)N2CCC3(CC2)CC3(F)F)c1` was tested, and the “% Inhibition” value was 11% and the Z score was -1.38. With `Cc1cc(NC(=O)c2cnc3ccccc3n2)ccc1N1CCCC1=O` the “% Inhibition” value was -9% and the Z score was 1.36. `OC(COc1ccc(F)cc1)CN1CCCCC1Cn1cncn1` (configuration not stated) was tested, and the “% Inhibition” value was -2% and the Z score was 0.37. In the case of `CN1CCN(C(=O)[C@@H]2Cc3cc(Cl)ccc3O2)CC1`, the “% Inhibition” value is reported as 3% and the Z score is reported as -0.42. For `Cc1ccc(C2=NN(c3nc(C(=O)O)cs3)[C@@](O)(C(F)(F)F)C2)cc1`, the “% Inhibition” value was -6% and the Z score was 0.94. `COC[C@@H]1CCC[C@@H]1Nc1ncc(-c2cncnc2)c(-c2ccc(C)cc2)n1` was tested, and the “% Inhibition” value was -7% and the Z score was 0.69. In the case of `CC1CN(S(C)(=O)=O)CCC1NC(=O)NCC(F)(F)c1cccc(F)c1` (configuration not stated), the “% Inhibition” value is reported as -14% and the Z score is reported as 1.76. With `CC(C)(CNS(C)(=O)=O)c1ccc(C(F)(F)F)cc1` the “% Inhibition” value was 0% and the Z score was 0.02. In the case of `CC(C)c1nn(C)cc1CN(C)Cc1c[nH]nc1-c1cccnc1`, the “% Inhibition” value is reported as -19% and the Z score is reported as 2.15. With `COc1ccc(Br)c(CS(=O)(=O)Nc2nnc[nH]2)c1` the “% Inhibition” value was -11% and the Z score was 2. In the case of `CCn1c(C)ccc(C(=O)NCc2ccc3c(c2)CCO3)c1=O`, the “% Inhibition” value is reported as 0% and the Z score is reported as 0.03. `CCCCN=C(NCc1c(C)noc1C)N[C@@H](C)CC` was tested, and the “% Inhibition” value was 1% and the Z score was -0.14. With `C[C@@H]1Oc2ccc(NC(=O)c3ccccc3)cc2CN(Cc2ccc(Cl)cc2)C1=O` the “% Inhibition” value was 6% and the Z score was -0.74. For `Cc1nn(-c2ccccc2)c(C)c1[C@H]1C(=O)NCCN1C(=O)c1cccc(C(F)(F)F)c1`, the “% Inhibition” value was 5% and the Z score was -0.54. For `Fc1cncnc1N1CC(Cn2cccn2)C1`, the “% Inhibition” value was -12% and the Z score was 1.32. `O=C(COC(=O)Cc1ccc(Cl)cc1)NC1CCCCCC1` was tested, and the “% Inhibition” value was 3% and the Z score was -0.34. In the case of `Cc1noc(C)c1C(=O)N1CCCCc2cc(Cl)ccc21`, the “% Inhibition” value is reported as 18% and the Z score is reported as -2.05. With `NC(=O)C1CC1c1cccc2ccccc12` (configuration not stated) the “% Inhibition” value was 31% and the Z score was -3.53. `CC(C)N1C[C@@H](Nc2nnc(-c3ccon3)s2)CC1=O` was tested, and the “% Inhibition” value was -2% and the Z score was 0.32. For `Cc1ccc(Cn2cc([C@H](CC(=O)NCc3ccccc3)c3ccc(C(C)(C)C)cc3)c3ccccc32)cc1`, the “% Inhibition” value was -13% and the Z score was 1.98. For `c1nscc1-c1csc(CN2CCOCC2)n1`, the “% Inhibition” value was -4% and the Z score was 0.65. `COc1ccccc1-c1cc(CC(C)C)nc(N(C(C)=O)C(C)=O)c1C#N` was tested, and the “% Inhibition” value was -17% and the Z score was 2.47. In the case of `O=C(c1cccnc1)n1nc(NCc2ccc(Cl)cc2Cl)nc1NCc1ccc(Cl)cc1Cl`, the “% Inhibition” value is reported as 4% and the Z score is reported as -0.55. `CCC1(C(=O)N[C@H]2CC[C@H](NC(=O)c3cc(C4CC4)[nH]n3)CC2)CCCC1` was tested, and the “% Inhibition” value was -1% and the Z score was 0.13. `CCOc1ccc(NC(=O)c2cn3c(n2)CCCC3)cc1` was tested, and the “% Inhibition” value was -4% and the Z score was 0.68. For `COC[C@H]1CCCCN1Cc1ccc(C)c2ncccc12`, the “% Inhibition” value was -10% and the Z score was 1.88. For `O=C(NCC#CCN1CCOCC1)c1cc(-c2ccc3c(c2)OCO3)n[nH]1`, the “% Inhibition” value was -19% and the Z score was 2.17. For `COc1cc(C)cc(OC)c1-c1ccc(N(C)C)nn1`, the “% Inhibition” value was 0% and the Z score was -0.04. In the case of `CCC(C)c1cc(C(=O)N(C)C2CCN(CC(F)(F)F)C2=O)on1` (configuration not stated), the “% Inhibition” value is reported as -4% and the Z score is reported as 0.58. `CCS(=O)(=O)N1CCC[C@H](C(=O)NC2(C)CCCCC2)C1` was tested, and the “% Inhibition” value was -18% and the Z score was 1.6. With `Cc1cc(C)nc(CCNc2cc(C(C)C)nc(N)n2)n1` the “% Inhibition” value was -2% and the Z score was 0.43. In the case of `CC(=O)NCCC1=CCCN(Cc2cc(F)ccc2Cl)C1`, the “% Inhibition” value is reported as 10% and the Z score is reported as -1.29. For `CCOc1ccc(NC(=O)Cn2c3c(cc(C#N)c2=O)CCC3)cc1`, the “% Inhibition” value was -17% and the Z score was 1.72. `COc1ccccc1CN(Cc1[nH]cc(C)c(=O)c1C)C1CC1` was tested, and the “% Inhibition” value was 1% and the Z score was -0.14. With `c1cc2cc(-c3cnn(CC4CC4)c3)ccc2[nH]1` the “% Inhibition” value was 1% and the Z score was -0.1. With `CC[C@@H](C(=O)Nc1nocc1C)c1c(C)noc1C` the “% Inhibition” value was 2% and the Z score was -0.32. With `N#Cc1sc2nnc(-c3ccccc3)c(-c3ccccc3)c2c1N` the “% Inhibition” value was -47% and the Z score was 5.48. `CCCc1nc(C(N)=O)n(Cc2cnc(C)s2)n1` was tested, and the “% Inhibition” value was 15% and the Z score was -1.95. With `CN(C)c1ccc(CN2CCN(Cc3ccc4c(c3)OCO4)C(=O)C2)cn1` the “% Inhibition” value was 3% and the Z score was -0.28. For `Cc1ccc2c(c1)C(NC(c1cccnc1)c1ncc[nH]1)CCC2` (configuration not stated), the “% Inhibition” value was 41% and the Z score was -5.86. In the case of `CC[C@@H](c1ccc(F)cc1)S(=O)(=O)Cc1ccnn1C`, the “% Inhibition” value is reported as 0% and the Z score is reported as 0. In the case of `O=C(Nc1nc2c(s1)CN(S(=O)(=O)c1cccc(Cl)c1)CC2)NC1CCCC1`, the “% Inhibition” value is reported as -12% and the Z score is reported as 2.31. In the case of `Cc1nc(CCNc2nc(-c3ccccn3)nc3c2CCNCC3)no1`, the “% Inhibition” value is reported as -2% and the Z score is reported as 0.27. `FC(F)(F)c1cccc(OCC#CCN2CCOCC2)c1` was tested, and the “% Inhibition” value was -3% and the Z score was 0.48. In the case of `c1cc(N2CCOCC3(CC3)C2)c2sccc2n1`, the “% Inhibition” value is reported as -1% and the Z score is reported as 0.11. `COc1ccc(-c2cc(C(=O)Nc3nc(-c4cccn4C)cs3)no2)c(F)c1` was tested, and the “% Inhibition” value was -1% and the Z score was 0.14. With `CC(C)(C)OC(=O)N1CCc2[nH][nH]c(=O)c2C1` the “% Inhibition” value was 1% and the Z score was -0.1. `Cc1cc(C(NC(=O)NC2CCOC3(CCCC3)C2)C2CC2)ccc1F` (configuration not stated) was tested, and the “% Inhibition” value was 2% and the Z score was -0.33. In the case of `Cn1cc(NC(=O)[C@H]2CCC(F)(F)C2)cn1`, the “% Inhibition” value is reported as 0% and the Z score is reported as 0.02. With `O=C(O)CC[C@H]1CCCN(Cc2ccc3cc[nH]c3n2)C1` the “% Inhibition” value was -3% and the Z score was 0.59.

Source: ChEMBL document CHEMBL4888484, “Replenishing the malaria drug discovery pipeline: Screening and hit evaluation of the MMV Hit Generation Library 1 (HGL1) against asexual blood stage Plasmodium falciparum ,using a nano luciferase reporter read-out” (2022)
